# Measured values taken from the antibiotic and cytotoxicity screens of Wong et al. (2023).
# Some of the results follow.
# Test system: HSkMC (human skeletal muscle cells)
# Assay: cytotoxicity call (relative viability < 0.9)
# Conditions: 10 µM
row,SMILES,cytotoxicity call
1,O=C(C[C@H]1C[C@H]2c3cc(NC(=O)Cc4ccncc4)ccc3O[C@H]2[C@@H](CO)O1)NCc1cccc(F)c1,inactive
2,COc1ccc(NC(=O)Nc2ccc3c(c2)CC(=O)N([C@H](C)CO)C[C@@H](C)[C@@H](CN(C)C(=O)Nc2ccc(C(F)(F)F)cc2)O3)cc1,inactive
3,Cc1ccc(S(=O)(=O)N(C)C[C@@H]2Oc3ccc(NS(=O)(=O)c4cccs4)cc3CC(=O)N([C@@H](C)CO)C[C@@H]2C)cc1,inactive
4,C[C@@H]1CN([C@H](C)CO)C(=O)c2cc(NC(=O)CCCN(C)C)ccc2O[C@@H](C)CCCCO[C@@H]1CN(C)CC1CCCCC1,inactive
5,O=C(NCC[C@@H]1CC[C@H](NS(=O)(=O)c2cccc(F)c2)[C@H](CO)O1)C1CC1,inactive
6,COc1ccc2c3c([nH]c2c1)[C@H](CO)N(Cc1ccc(cc1)Cl)C[C@]13CCN(CC1)Cc1ccccc1,active
7,COc1ccc(S(=O)(=O)Nc2ccc3c(c2)C(=O)N([C@@H](C)CO)C[C@@H](C)[C@@H](CN(C)S(=O)(=O)c2ccc(C)cc2)O3)cc1,inactive
8,COc1ccc([C@H]2CC=CC[C@H](C)Oc3ccccc3C(=O)N(C)[C@H](Cc3ccccc3)C(=O)N2)c(OC)c1,inactive
9,C[C@H]1CN([C@@H](C)CO)C(=O)c2cccc(NS(=O)(=O)c3cn(C)cn3)c2O[C@@H]1CN(C)S(=O)(=O)c1cn(C)cn1,inactive

# Test system: HepG2
# Assay: cytotoxicity call (relative viability < 0.9)
# Conditions: 10 µM
row,SMILES,cytotoxicity call
1,C[C@H]1CN([C@@H](C)CO)C(=O)c2cc(NC(=O)CCCN(C)C)ccc2O[C@@H]1CN(C)C(=O)NC1CCCCC1,inactive
2,CC(/C=C/C(=O)NO)=C\c1ccccc1OCc1cn(-c2ccc(C[C@H]3C(=O)O[C@@H](Cc4ccccc4)[C@H]4[C@@H]5C=CCCC=C5CN43)cc2)nn1,inactive
3,COc1ccc(C#Cc2cnc3c(c2)C(=O)N([C@H](C)CO)C[C@H](C)[C@@H](CN(C)C(=O)CN(C)C)O3)cc1,inactive
4,O=C1N[C@@H](Cc2ccccc2)C(=O)N2[C@@H]1C[C@@H](C(=O)NCc1ccc(F)cc1)[C@H]2c1cccc(OCCO)c1,inactive
5,COc1ccc(S(=O)(=O)Nc2ccc3c(c2)C(=O)N([C@H](C)CO)C[C@@H](C)[C@H](CN(C)C(=O)Nc2c(C)noc2C)O3)cc1,inactive
6,C[C@@H]1CN([C@H](C)CO)C(=O)c2cc(NC(=O)C3CCCCC3)ccc2O[C@@H](C)CCCCO[C@@H]1CN(C)Cc1ccncc1,inactive
7,Cc1ccc(S(=O)(=O)N(C)C[C@@H]2OCCCC[C@H](C)Oc3ccc(NC(=O)CCC(F)(F)F)cc3C(=O)N([C@@H](C)CO)C[C@H]2C)cc1,inactive
8,Cc1cc(C)c(NC(=O)[C@@H](N)Cc2ccccc2)c(Cl)c1,active
9,N[C@@H]1CCCN(Cc2ccncc2)[C@H]1c1ccccc1F,inactive
10,CC(C)NC(=O)Nc1ccc2c(c1)CC(=O)N([C@H](C)CO)C[C@H](C)[C@@H](CN(C)C(=O)Nc1ccc3c(c1)OCO3)O2,inactive
11,Cc1ccc(S(=O)(=O)Nc2ccc3c(c2)C(=O)N([C@H](C)CO)C[C@@H](C)[C@@H](CN(C)C(=O)Nc2c(C)noc2C)OCCCC[C@@H](C)O3)cc1,inactive
12,C[C@H]1CCCCO[C@H](CN(C)S(=O)(=O)c2ccccc2)[C@@H](C)CN([C@@H](C)CO)C(=O)c2cc(NC(=O)NC3CCCCC3)ccc2O1,inactive
13,CO[C@@H](CN(C)S(=O)(=O)c1cccc(Cl)c1)[C@@H](C)CN([C@H](C)CO)S(=O)(=O)c1cccc(Cl)c1,inactive
14,CCCC(CCC)C(=O)[O-].[Na+],inactive
15,COc1ccccc1CNC(=O)C[C@H]1C[C@H]2c3cc(NC(=O)C4CCOCC4)ccc3O[C@H]2[C@H](CO)O1,inactive
16,Cc1noc(C)c1NC(=O)Nc1ccc2c(c1)CC(=O)N([C@@H](C)CO)C[C@H](C)[C@H](CN(C)CC1CC1)O2,inactive
17,COc1cccc(CNC(=O)c2cc3c(c(-c4cccc(-c5cccc(C#N)c5)c4)n2)[C@H](CCO)N([S@@](=O)C(C)(C)C)C3)c1,inactive
18,C[C@@H]1CCCCO[C@H](CN(C)Cc2ccc(C(=O)O)cc2)[C@@H](C)CN([C@H](C)CO)C(=O)c2cc(NC(=O)NC3CCCCC3)ccc2O1,inactive
19,O=C(O)c1cncnc1N1CCCC1,inactive
20,COc1ccc(NC(=O)N(C)C[C@@H]2OCCCC[C@@H](C)Oc3ccc(NC(=O)Nc4ccccc4)cc3C(=O)N([C@H](C)CO)C[C@@H]2C)cc1,inactive

row,SMILES,cytotoxicity call
1,O=C(N[C@@H]1C=C[C@H](CC(=O)N2CCOCC2)O[C@@H]1CO)c1ccccn1,inactive
2,Cc1noc(C)c1NC(=O)Nc1ccc2c(c1)CC(=O)N([C@H](C)CO)C[C@@H](C)[C@@H](CN(C)Cc1ccc(C(=O)Nc3ccccc3N)cc1)O2,inactive
3,C[C@@H]1CN([C@@H](C)CO)C(=O)c2cc(-c3ccncc3)cnc2O[C@@H]1CN(C)S(=O)(=O)c1ccccc1,inactive
4,C[C@@H]1CN([C@H](C)CO)C(=O)CCCn2nncc2CO[C@H]1CN(C)C(=O)Nc1cccc(C(F)(F)F)c1,inactive
5,COC(=O)[C@H](Cc1ccccc1)N1CC2=C[C@@H]([C@@H](O)CCn3cc(-c4ccc(C(=O)NO)s4)nn3)n3c(=O)n(C)c(=O)n3[C@@H]2[C@@H](C2CC2)O1,inactive
6,O=C(NCCc1ccccc1)c1nnc[nH]1,inactive
7,CO[C@@H]1CN(C)C(=O)c2cc(NS(C)(=O)=O)ccc2OC[C@H](C)N(C(=O)c2ccc3c(c2)OCO3)C[C@@H]1C,inactive
8,COC(=O)CCc1c(C)[nH]c(=S)[nH]c1=O,inactive
9,O=C(O)CN(CCc1ccccc1)CC(=O)O,inactive
10,Cc1ccc(S(=O)(=O)N(C)C[C@@H]2Oc3ccc(NC(=O)NC(C)C)cc3C(=O)N([C@@H](C)CO)C[C@H]2C)cc1,inactive
11,O=C(CS(=O)(=O)c1cccc2nsnc12)N1CC(=O)N(CCc2ccccc2)C(=O)C1,inactive
12,O=C(C[C@H]1C[C@H]2c3cc(NC(=O)Cc4ccncc4)ccc3O[C@H]2[C@@H](CO)O1)NCc1cccc(F)c1,inactive
13,COc1ccc(NC(=O)Nc2ccc3c(c2)CC(=O)N([C@H](C)CO)C[C@@H](C)[C@@H](CN(C)C(=O)Nc2ccc(C(F)(F)F)cc2)O3)cc1,inactive
14,Cc1ccc(S(=O)(=O)N(C)C[C@@H]2Oc3ccc(NS(=O)(=O)c4cccs4)cc3CC(=O)N([C@@H](C)CO)C[C@@H]2C)cc1,inactive
15,C[C@@H]1CN([C@H](C)CO)C(=O)c2cc(NC(=O)CCCN(C)C)ccc2O[C@@H](C)CCCCO[C@@H]1CN(C)CC1CCCCC1,inactive
16,O=C(NCC[C@@H]1CC[C@H](NS(=O)(=O)c2cccc(F)c2)[C@H](CO)O1)C1CC1,inactive
17,COc1ccc2c3c([nH]c2c1)[C@H](CO)N(Cc1ccc(cc1)Cl)C[C@]13CCN(CC1)Cc1ccccc1,active
18,COc1ccc(S(=O)(=O)Nc2ccc3c(c2)C(=O)N([C@@H](C)CO)C[C@@H](C)[C@@H](CN(C)S(=O)(=O)c2ccc(C)cc2)O3)cc1,inactive
19,COc1ccc([C@H]2CC=CC[C@H](C)Oc3ccccc3C(=O)N(C)[C@H](Cc3ccccc3)C(=O)N2)c(OC)c1,inactive
20,C[C@H]1CN([C@@H](C)CO)C(=O)c2cccc(NS(=O)(=O)c3cn(C)cn3)c2O[C@@H]1CN(C)S(=O)(=O)c1cn(C)cn1,inactive
